# Some of the results follow.
# Tested on: PF3D7_0420300 AP2 domain 1 (GST-tagged)
# Experiment: gcPBM binding intensity (ln(normalized median fluorescence intensity)); higher = stronger DNA binding
# Outline: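 An Agilent 4 × 180k array of primer-extended double-stranded 36-bp intergenic genomic probes, with negative controls, was incubated for 1 h with GST-tagged P. falciparum DNA-binding domains expressed in E. coli. Alexa488 anti-GST antibody detected bound protein, scanned at 488 nm. Binding intensity is the highest Masliner-normalised natural-log median intensity across replicate spots of either probe orientation.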
row,Sequence,gcPBM binding intensity (ln)
1,AATGATACACATATATGTACATATATATATATATAT [XGTACX_site5391],9.45
2,ATATGGATTATACATACATGCATACATACATACATA [TGCATGCA_site475],9.24
3,TATATACATATATGCACACAAAAAAATATATATTTT [CACACA_site1729],9.39
4,AAAATTTAATATAATGCACACATAAAACAAAAACAA [CACACA_site8071],9.74
5,AAATGTAGAAAAAGTTGTACACTGTTTCAAAAATAA [XGTACX_site1063],9.13
6,TTTAAAGTTTTATACACACACCAAAGTTATTCTAAT [CACACA_site6432],9.56
7,CAATGAAAAATAATGAGTACATAGTTAATAAAGATA [XGTACX_site72],9.49
8,AATTTCTTTTTCGATATACACACTGTATGTGTCTAA [CACACA_site3975],9.43
9,ATAATTAAAATTAAATGTACTTTTTTATATATTTTT [XGTACX_site2209],9.05
10,ATATTTTATTATATAGGTACACATAATTTCATGTAA [XGTACX_site415],9.22
11,ATCTTAATTTTTGAAGGTACACACTAATATATTAAA [XGTACX_site2292],9.25
12,TATATAGTAAATATTTGTACATAATAAAATATATGT [XGTACX_site7873],9.26
13,TTTTGTACATCTTTTGCACACGTAATGTTATTATAA [CACACA_site1259],9.51
14,AATAAATAAAAATGCACACAGTTAACATGTTGAATT [CACACA_site4795],9.68
15,TATAATATAAAAATGAGTACATAGATAATAATATTT [XGTACX_site2376],9.43
16,TTTTTTTTTTATTAATGTACAAGATATATAATGTTA [XGTACX_site4809],8.88
17,TTTTAGTTATTGTATTATTATTAATATATAATATCT [CACACA_negctrl_site1528],9.25
18,CTAAAATGTAAAAACGCACACATAATATTATAAAAA [CACACA_site2788],9.62
19,AAAGCATGTTAATATGTATAAATACTGATCATTCAC [GTGCAC_negctrl_site576],9.22
20,TATATAAATAAACACACACACACCTTATAATTATTA [CACACA_site9345],9.93
21,CTTGTCATTTGGCACACACACATGTATAGGTTATTA [CACACA_site5656],9.9
22,TGAATAAATCAAAGCACACATACACAGACATATATA [CACACA_site4316],9.76
23,AACAGATAATATAAAAAAAAAAAAAAAAATAATTAA [GTGCAC_negctrl_site69],9.26

row,Sequence,gcPBM binding intensity (ln)
1,GTAGTGGTTGAATATACACACATATATATATATATA [CACACA_site2651],9.46
2,AACGTGTATTTATATTGTACACATTCATACATCAAA [XGTACX_site3644],9.31
3,AGATAATAGGTTACTTGTACATATAAATAAATATAT [XGTACX_site158],9.17
4,ATATTAATTTCTCATGCATGTTCTACCCAATTGTAA [TGCATGCA_site355],9.35
5,AAAATCTAATATAATGCACACATAAAAAAAAATCAA [CACACA_site9211],9.5
6,TTTTGTTATTATGAAGTGCATTTATGTTCATGTCTA,9.22
7,AAAAAAAAAAAAAATTCACACAAGACTACTACATTT [CACACA_site4195],9.36
8,ATATATGACTAATAAAGTACATACTTCATATAATTA [XGTACX_site6699],9.09
9,ACCCTTTTATATAAGAGTACAAACGTATTATTAAAT [XGTACX_site2221],9.14
10,AATATTAAAAACAAAACACACAAAAAAAAATAAAAT [CACACA_site702],9.87
11,TATATTATATATATACTGCACTGTTTTACAAAATTA,9.17
12,TGTGTATAAGTCACTTGTACTAGTAGTAAAAAAAAA [XGTACX_site4341],9.15
13,TAATATATGTTATATACACACATATAAATATAAATA [CACACA_site6339],9.2
14,TGAAGTATAATTTATCTAATATGTTATATTTTATTT [TGCATGCA_negctrl_site56],9.14
15,CAAATAATATTATGAAGTACTTCAAATTTTGAAAGA [XGTACX_site2530],9.04
16,TTTAATATTATTATTTTACACACTTTTTTCCTTTTA [CACACA_site8780],9.42
17,AATATAGGTATATCCACACACATATTTATATTTATA [CACACA_site6867],9.67
18,TCTTATAAACTCTGCACACATAATATATTAAATGAG [CACACA_site1936],9.31
19,TAAAGTTTTTCCTATCTATATTTATATTATAAATGA [XGTACX_negctrl_site20],8.87
20,GTGAGTGAAATATGCAAACACACACCCGAAAAATGT [CACACA_site3197],9.57
21,TATAAAGGTATACAAAGTACAAAATACATATATACT [XGTACX_site6431],9.45
22,TATGATTTTAATGAAACACACAATTTTATGTTAATA [CACACA_site311],9.18
23,AGGTGCTTAATATATACACACATACAGATATATATA [CACACA_site5552],9.46

row,Sequence,gcPBM binding intensity (ln)
1,GAACTCATTACAAAGTGTACAAATTAAATAAATGGT [XGTACX_site3995],9.18
2,TTTTTCTTATTTGGATTGCACTACATATATATATAT,9.41
3,ATAAGGTTACAACAAACACACAAAGGAATATACACA [CACACA_site7840],9.87
4,AAAATTTTTTGAAATAGTACTTTTTTATATATATAT [XGTACX_site2634],9.04
5,CAACAAAATAAACACACACACACAAACACAAAAAAA [CACACA_site5806],10.3
6,TATAAATTTATATATGCATGTCAGAAAAAAAAGTAA [TGCATGCA_site414],9.23
7,ACAAAAAATTAATGAGAAATGGAATAATAAGTTATA [GTGCAC_negctrl_site321],9.31
8,GGATATTAATAAATATGTACATATGTAGATTTATTA [XGTACX_site554],9.31
9,TGTATACCTTAATATACACACATACCTATATTTATA [CACACA_site6746],9.46
10,TATAAATAGAGGAAGCGTACATATATATATATATAT [XGTACX_site4993],9.34
11,ATATATAAATATATATGTACATAAATATATATCTTT [XGTACX_site6910],9.19
12,AAGAAAAAAAAAAAAACACACATATATATATATATA [CACACA_site2027],9.46
13,AAATAAATAAATAGACGTACAAAAATATTATACATT [XGTACX_site6776],9.46
14,AATAATGAAAAAATGAATAAAATTACTATATAATTC [XGTACX_negctrl_site457],9.01
15,GATATGATGTGTTTGGTAGTTTTTGATGTTGGCATG [GTGCAC_negctrl_site506],9.42
16,TATAAATGTGTATGCGCATGTAAAAATATAATTTAT [TGCATGCA_site750],9.36
17,GTAAATAATAAACACCGTACATGGTATAATTCAATG [XGTACX_site3655],9.49
18,TGTACGAGTCGTAGAGTGCAGTCTGGAGAAAAGTAC [GTGCAC_site9683],9.19
19,TATATATATATATATACACACTTGTGCAGAATATTA [CACACA_site5257],9.27
20,CCACAGGATTGGTTCAAACACACATATTATATGACT [CACACA_site661],9.39
21,TATTTTTTTTTTTTTTGTACACATAATTGTAATCGT [XGTACX_site8415],9.25
22,CATATAAAAATGTGCACACACACACCGATATATATT [CACACA_site4940],10.1
23,TCACTTTTTATTAAATGTACATGCTTTCATTTTCAT [XGTACX_site8139],9.35

row,Sequence,gcPBM binding intensity (ln)
1,TATATATATATATATGTACACACATCAATCATATTA [CACACA_site8594],9.33
2,GAATAAATAATTAACACACACAATCTTTTTTTTTTT [CACACA_site3140],9.69
3,AAAAAAAAAATAAAATAAAATATATTATATATATTA [GTGCAC_negctrl_site431],8.9
4,TGAACAATGTATAATTGTACGCAACGAAAATAAAAA [XGTACX_site1559],9.31
5,ATCATGTTATATATGTGTACATATATATGATATAAT [XGTACX_site991],9.15
6,ATTATAAATTAAAATACACACATATATACCTAATAT [CACACA_site5541],9.74
7,ATATATAATTACACAAATAAAAAAATAAAATGAAAT [CACACA_negctrl_site1513],9.58
8,AGAATAAAAATACAAGCACACATGTATGAAATATAT [CACACA_site3213],9.79
9,TTTTGTTATGAGAGGGTGCTAATATTTGGATATAAA,9.26
10,AAAAAAAGAAAAATTGCACACACTTATAAAAATATA [CACACA_site4014],9.55
11,AAAAAAAAAAAAAGTAGTACATAATATGTTCCTCCT [XGTACX_site8356],9.06
12,TCTTATTAAAATATTTATATAGGTAATCACAATATT [GTGCAC_negctrl_site568],9.04
13,AGAAATAAGAAATATACACACATATATATATATATA [CACACA_site2808],9.24
14,TATAAAATAAGACATGCATGTTATACATATATATAT [TGCATGCA_site314],9.32
15,TATTTTTTTCTTACTACACACATATATATGCTTTCC [CACACA_site4058],9.68
16,AATGGAAAAAAAAAAATAAATACAAATAAATACAAA [GTGCAC_negctrl_site407],9.45
17,TCATTAATATTTCATAGTACAATTTTGTCTAATTGT [XGTACX_site6720],9.22
18,TTATATTATACATACACACCCATATAACATGTTTTT [CACACA_site6539],9.61
19,AAGGAATATGTATATACACACAGGTACATATATATA [CACACA_site441],9.64
20,AAAAAATAATAATAATGTACAAATAAAATAAAAACA [XGTACX_site6568],9.73

# From the supplement of paper PMC11417369
